We go through 73 sequences from the BET-seq Pho4 binding data (Le et al. 2018).

Some of the results follow. Values were computed here from the reads of four pooled replicates and scatter widely.

For the experiment, the target named is T1, Pho4 (S. cerevisiae) (UniProt P07270).
T1 sequence: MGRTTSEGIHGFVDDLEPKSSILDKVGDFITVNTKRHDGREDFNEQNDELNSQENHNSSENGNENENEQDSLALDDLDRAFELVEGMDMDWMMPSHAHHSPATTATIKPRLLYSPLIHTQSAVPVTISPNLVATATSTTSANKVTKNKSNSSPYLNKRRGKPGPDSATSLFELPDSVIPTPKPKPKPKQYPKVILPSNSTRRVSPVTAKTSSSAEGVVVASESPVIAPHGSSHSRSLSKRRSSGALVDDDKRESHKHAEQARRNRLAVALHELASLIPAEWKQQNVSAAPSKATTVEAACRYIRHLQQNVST
Kind of experiment: relative binding free energy (BET-seq); higher = weaker binding. The settings on record: reference: library average.
For GTTTTCACGTGGAGGT, the “relative binding free energy” value came out at 0.32 kcal/mol.
In the case of AATAACACGTGTGTAG, the “relative binding free energy” value was 0.12 kcal/mol.
Take ATCTACACGTGTAGGT: the “relative binding free energy” value turned out to be 0.24 kcal/mol.
For GGGCTCACGTGGGGAT, the “relative binding free energy” value worked out at 0.23 kcal/mol.
In the case of GTAAGCACGTGGATAG it was -0.08 kcal/mol; in that of ACAGTCACGTGGTGAG, -0.05 kcal/mol; in that of CATATCACGTGTGATT, 0.24 kcal/mol.
As to CGGGGCACGTGCGGAG, the “relative binding free energy” value is -0.28 kcal/mol.
With GGTGTCACGTGTGTGC, the “relative binding free energy” value amounted to 0.26 kcal/mol.
In the case of TTGTCCACGTGTACTT, the “relative binding free energy” value was 0.09 kcal/mol.
Regarding ATTGTCACGTGGTCCG, the “relative binding free energy” value amounted to 0.02 kcal/mol.
In the case of TGATACACGTGAGGGG, the “relative binding free energy” value was 0.28 kcal/mol.
Consider GGGGGCACGTGACAGG, for which the “relative binding free energy” value was 0.08 kcal/mol.
As to GTGTGCACGTGTAGCC, the “relative binding free energy” value turned out to be 0.23 kcal/mol.
As to CTCGTCACGTGCGGGG, the “relative binding free energy” value was -0.1 kcal/mol.
Take GACAGCACGTGGGGTG: the “relative binding free energy” value is -0.14 kcal/mol.
ATTGTCACGTGTAGCG: the “relative binding free energy” value is 0.19 kcal/mol.
In the case of TATTGCACGTGTGTTT it was 0.13 kcal/mol; in that of TTAGCCACGTGGGGGG, -0.25 kcal/mol; in that of GTGTGCACGTGAACGT, 0.21 kcal/mol.
In the case of ATGCTCACGTGATGTT it was 0.22 kcal/mol; in that of ATATGCACGTGCCGTG, 0.01 kcal/mol; in that of TTGATCACGTGGGACG, 0.02 kcal/mol.
For the sequence AGTGCCACGTGGGGGC, the “relative binding free energy” value was -0.42 kcal/mol.
Consider GGGGTCACGTGTGGGA, for which the “relative binding free energy” value is 0.17 kcal/mol.
AGGGGCACGTGAAAGG: the “relative binding free energy” value was found to be 0.04 kcal/mol.
On to TATTACACGTGCGGTT, for which the “relative binding free energy” value was 0.15 kcal/mol.
With ATGATCACGTGTGTTA the figure was 0.11 kcal/mol; with TCGTTCACGTGGTGCT, 0.14 kcal/mol.
On to GCGAGCACGTGATTGT, for which the “relative binding free energy” value stood at 0.22 kcal/mol.
For the sequence TAGTACACGTGAGTAT, the “relative binding free energy” value was determined as 0.37 kcal/mol.
As to TATTGCACGTGGGTCC, the “relative binding free energy” value is -0.02 kcal/mol.
With TTCACCACGTGGGGTG the figure was -0.25 kcal/mol.
As for TTTAACACGTGGATTG, the “relative binding free energy” value is -0.02 kcal/mol.
Turning to CTTTGCACGTGAGTTG, the “relative binding free energy” value stood at 0.27 kcal/mol.
Regarding AGCGTCACGTGGGGGA, the “relative binding free energy” value is -0.09 kcal/mol.
In the case of TGAGGCACGTGTCTGT it was -0.16 kcal/mol; in that of GTTGGCACGTGGCTGG, -0.13 kcal/mol.
On to TGGAGCACGTGGCCTG, for which the “relative binding free energy” value was -0.16 kcal/mol.
In the case of TCCTGCACGTGTTTGG, the “relative binding free energy” value was 0.12 kcal/mol.
Regarding TCGGTCACGTGGTAGA, the “relative binding free energy” value is -0.05 kcal/mol.
Consider TGTGGCACGTGCCTGG, for which the “relative binding free energy” value is -0.13 kcal/mol.
GACGTCACGTGGGGTA: the “relative binding free energy” value is -0.05 kcal/mol.
TGGGTCACGTGGCTCA: the “relative binding free energy” value was found to be 0.04 kcal/mol.
In the case of CGGTTCACGTGGATTG, the “relative binding free energy” value was found to be 0.19 kcal/mol.
In the case of AAAAGCACGTGGTAGG it was -0.11 kcal/mol.
Turning to TGTGGCACGTGTTCCG, the “relative binding free energy” value was -0.14 kcal/mol.
Consider AAAGGCACGTGATTGT, for which the “relative binding free energy” value was 0.08 kcal/mol.
With TTTTTCACGTGAGACG the figure was 0.34 kcal/mol; with CTATGCACGTGGGGCA, -0.15 kcal/mol.
Consider AGTGGCACGTGCGGGT, for which the “relative binding free energy” value is -0.22 kcal/mol.
With GTGGGCACGTGTGCTA, the “relative binding free energy” value was -0.04 kcal/mol.
As for CTGATCACGTGTCGGT, the “relative binding free energy” value stood at 0.2 kcal/mol.
With TTTTCCACGTGGTAAG, the “relative binding free energy” value was determined as 0.14 kcal/mol.
Consider CGTAGCACGTGTGGTC, for which the “relative binding free energy” value was -0.03 kcal/mol.
TCCGACACGTGGGGGG: the “relative binding free energy” value was -0.14 kcal/mol.
In the case of AATCGCACGTGGTTGG it was -0.09 kcal/mol.
Consider GAAAGCACGTGAGGGA, for which the “relative binding free energy” value came out at 0.3 kcal/mol.
With TGAGTCACGTGGTAGA, the “relative binding free energy” value amounted to 0.03 kcal/mol.
In the case of GTAATCACGTGGGATG, the “relative binding free energy” value amounted to 0.09 kcal/mol.
In the case of CTGGACACGTGGTCGG, the “relative binding free energy” value was -0.08 kcal/mol.
With TGTTCCACGTGGGGGG, the “relative binding free energy” value was -0.06 kcal/mol.
In the case of TTTTACACGTGTCGGC, the “relative binding free energy” value was determined as 0.2 kcal/mol.
Turning to ATGTCCACGTGGTTGT, the “relative binding free energy” value was -0.05 kcal/mol.
On to GGTGGCACGTGCTTCG, for which the “relative binding free energy” value was -0.18 kcal/mol.
For TATATCACGTGAGGGA, the “relative binding free energy” value was 0.19 kcal/mol.
With AGACGCACGTGTGGGG the figure was 0.08 kcal/mol; with GTATGCACGTGTGGAT, 0.08 kcal/mol; with GAGTGCACGTGTAATT, -0.06 kcal/mol.
As to AAGAGCACGTGTAGTA, the “relative binding free energy” value is -0.13 kcal/mol.
GAGAGCACGTGGGCGG: the “relative binding free energy” value is -0.19 kcal/mol.
Take GGGGGCACGTGATTAT: the “relative binding free energy” value stood at 0.05 kcal/mol.
With TAGAGCACGTGAGAGG the figure was 0.17 kcal/mol.
